Some of the results follow.
Assays:
Test in all cases: glycan array binding signal (z-score within array); higher = stronger binding
Settings in all cases: glycan notation: IUPAC condensed, linker removed
[1] = target: GlcNAc(b1-3)Gal(b1-4)GlcNAc(b1-3)Gal(b1-4)GlcNAc(b1-3)Gal(b1-4)GlcNAc(b1-3)Gal(b1-4)GlcNAc(b1-2)[GlcNAc(b1-3)Gal(b1-4)GlcNAc(b1-3)Gal(b1-4)GlcNAc(b1-3)Gal(b1-4)GlcNAc(b1-3)Gal(b1-4)GlcNAc(b1-6)]Man(a1-6)[GlcNAc(b1-3)Gal(b1-4)GlcNAc(b1-3)Gal(b1-4)GlcNAc(b1-3)Gal(b1-4)GlcNAc(b1-3)Gal(b1-4)GlcNAc(b1-2)Man(a1-3)]Man(b1-4)GlcNAc(b1-4)[Fuc(a1-6)]GlcNAc
In short: (§1)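 Glycan array data were curated from 3228 arrays in the Consortium for Functional Glycomics database and kept only where the protein sequence was available. Glycan names were converted to IUPAC-condensed notation, and columns mapping to the same glycan were averaged. The binding signal is a within-array Z-score, averaged across arrays of the same protein sequence at different concentrations or buffers and across linkers. Negative Z-scores can be read as non-binding.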

[2] = target: GlcNAc(b1-3)Gal(b1-4)GlcNAc(b1-3)Gal(b1-4)GlcNAc(b1-3)GalNAc
In short: as §1

[3] = target: GlcNAc(b1-3)Gal(b1-4)GlcNAc(b1-3)GalNAc
In short: as §1

[4] = target: GlcNAc(b1-3)Gal(b1-4)GlcNAc(b1-3)[GlcNAc(b1-3)Gal(b1-4)GlcNAc(b1-3)]GalNAc
In short: as §1

[5] = target: GlcNAc(b1-3)Gal(b1-4)GlcNAc(b1-6)[Gal(b1-3)]GalNAc
In short: as §1

[6] = target: GlcNAc(b1-3)Gal(b1-4)GlcNAc(b1-6)[GlcNAc(b1-3)Gal(b1-3)]GalNAc
In short: as §1

[7] = target: GlcNAc(b1-3)Gal(b1-4)GlcNAc(b1-6)[GlcNAc(b1-3)]Gal(b1-4)GlcNAc
In short: as §1

GlcNAc(b1-3)GalNAc = target: GlcNAc(b1-3)GalNAc
In short: as §1

GlcNAc(b1-3)Man = target: GlcNAc(b1-3)Man
In short: as §1

[8] = target: GlcNAc(b1-3)[GlcNAc(b1-4)][GlcNAc(b1-6)]GlcNAc
In short: as §1

[9] = target: GlcNAc(b1-3)[GlcNAc(b1-6)]Gal(b1-4)GlcNAc
In short: as §1

[10] = target: GlcNAc(b1-3)[GlcNAc(b1-6)]GalNAc
In short: as §1

[11] = target: GlcNAc(b1-4)Gal(b1-4)GlcNAc
In short: as §1

GlcNAc(b1-4)GlcNAc = target: GlcNAc(b1-4)GlcNAc
In short: as §1

[12] = target: GlcNAc(b1-4)GlcNAc(b1-4)GlcNAc
In short: as §1

[13] = target: GlcNAc(b1-4)GlcNAc(b1-4)GlcNAc(b1-4)GlcNAc(b1-4)GlcNAc
In short: as §1

[14] = target: GlcNAc(b1-4)GlcNAc(b1-4)GlcNAc(b1-4)GlcNAc(b1-4)GlcNAc(b1-4)GlcNAc
In short: as §1

[15] = target: GlcNAc(b1-4)[GlcNAc(b1-6)]GalNAc
In short: as §1

[16] = target: GlcNAc(b1-6)Gal(b1-4)GlcNAc
In short: as §1

GlcNAc(b1-6)GalNAc = target: GlcNAc(b1-6)GalNAc
In short: as §1

[17] = target: GlcNAc6S(b1-3)Gal(b1-4)GlcNAc
In short: as §1

Kdn(a2-3)Gal(b1-3)GalNAc = target: Kdn(a2-3)Gal(b1-3)GalNAc
In short: as §1

Kdn(a2-3)Gal(b1-3)GlcNAc = target: Kdn(a2-3)Gal(b1-3)GlcNAc
In short: as §1

Kdn(a2-3)Gal(b1-4)Glc = target: Kdn(a2-3)Gal(b1-4)Glc
In short: as §1

Kdn(a2-3)Gal(b1-4)GlcNAc = target: Kdn(a2-3)Gal(b1-4)GlcNAc
In short: as §1

[18] = target: Kdn(a2-3)Gal(b1-4)[Fuc(a1-3)]GlcNAc
In short: as §1

Kdn(a2-6)Gal(b1-4)GlcNAc = target: Kdn(a2-6)Gal(b1-4)GlcNAc
In short: as §1

[19] = target: Man(a1-2)Man(a1-2)Man(a1-3)Man
In short: as §1

[20] = target: Man(a1-2)Man(a1-2)Man(a1-6)[Man(a1-3)]Man
In short: as §1

Man(a1-2)Man(a1-3)Man = target: Man(a1-2)Man(a1-3)Man
In short: as §1

B1: CC1G-10077 (Coprinopsis cinerea), A8NDT7 (protein)
chain: MALNEGVYWIRNSRFTNKVLDLDAANVAKGTSILDFNEHGTFNENHNQLWIVERFQSRDTYLIRSVHSNLVLDLSQGLSANGTPILCWTQHGGTNQQWRIEWVKDDNKTPLYRIVSVATGTAISHNEDDSSAYTVAWSVDDGPKQLWSFDPFVTPLLYRLRVKSTSRVLDLAAASADNGTLALAWEQHTAITKRNQLWWLPYRSGAEEYTIQCLETSTVADLSGGNSGNGTPIYGWQSHGGRNQQWKFEPTSDSGDYYHIKNVEGGSVMDAYMNDSQKRVGGWSNNGGDNQKWLLDPLPSPGPGWVLIQNGGTGKFLCSTPSGDIGTADGPETVYDYSVQWRFIQREYTGVYHVVNRATGAYLRQIGTSMPSIGLAEENDDELKDWWMLETYDNSEIGLASIISRWTGNVLDHYGGVSVQALDNNTENSYRSWAIIPARDWLTSFSLVNGQGGLCLAAQYAREETRLSTTANVNDFHAQWVFRKPSGSSGYTIQNKYNNHYVGGTSARWELVVCCNKYFGIRNTSTQKYLAIEDGQVTFQDQDMTDRKQCWELCSGRATDTSGNDYDLIYMDDDLLEVMIPWVGDKQGDLKHYIEKRATKKPPKDKGGWQLPAAGLIKKPKFNDIRQLLQELIEQWEWDVVNEEREQIQTLVSIDEAEARRLLGRRPHPDIVAAYQRSRSSTLFRIDRQGYFNIAGDRYVNIQGQYGDDSYFHIALPVGVRFGREQIRRFLRDSLDRSTSVTITPTTCKPPSGGPDYNRDPDSDGDNSWIKWTIAVVGTSAIKHSEL
- glycan array binding signal (z-score) [1]: 0.422
- glycan array binding signal (z-score) [2]: -0.45
- glycan array binding signal (z-score) [3]: -0.445
- glycan array binding signal (z-score) [4]: 0.052
- glycan array binding signal (z-score) [5]: 0.189
- glycan array binding signal (z-score) [6]: -0.388
- glycan array binding signal (z-score) [7]: -0.257
- glycan array binding signal (z-score) (GlcNAc(b1-3)GalNAc): -0.438
- glycan array binding signal (z-score) (GlcNAc(b1-3)Man): -0.513
- glycan array binding signal (z-score) [8]: -0.446
- glycan array binding signal (z-score) [9]: -0.365
- glycan array binding signal (z-score) [10]: -0.385
- glycan array binding signal (z-score) [11]: -0.419
- glycan array binding signal (z-score) (GlcNAc(b1-4)GlcNAc): -0.479
- glycan array binding signal (z-score) [12]: -0.467
- glycan array binding signal (z-score) [13]: -0.453
- glycan array binding signal (z-score) [14]: -0.491
- glycan array binding signal (z-score) [15]: -0.514
- glycan array binding signal (z-score) [16]: 3.18
- glycan array binding signal (z-score) (GlcNAc(b1-6)GalNAc): 2.95
- glycan array binding signal (z-score) [17]: 2.55
- glycan array binding signal (z-score) (Kdn(a2-3)Gal(b1-3)GalNAc): -0.401
- glycan array binding signal (z-score) (Kdn(a2-3)Gal(b1-3)GlcNAc): -0.443
- glycan array binding signal (z-score) (Kdn(a2-3)Gal(b1-4)Glc): -0.5
- glycan array binding signal (z-score) (Kdn(a2-3)Gal(b1-4)GlcNAc): -0.466
- glycan array binding signal (z-score) [18]: -0.47
- glycan array binding signal (z-score) (Kdn(a2-6)Gal(b1-4)GlcNAc): -0.404
- glycan array binding signal (z-score) [19]: -0.448
- glycan array binding signal (z-score) [20]: -0.51
- glycan array binding signal (z-score) (Man(a1-2)Man(a1-3)Man): -0.485

Source: the supplement of paper PMC8728848
